Molecules are shown by their SMILES. Screen size: about 50,000 compounds; about 800 (1.6%) showed an effect of 50% or more. The list shows a part of the results.

This experiment has as its target Bcl-2-like protein 10 (Homo sapiens) (UniProt Q9HD36). Description: TR3 peptide-Bcl-B binding displacers, biochemical primary FP assay, phenotype converters (AID 1240).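 Also: 0% = Bcl-B with tracer peptide and DMSO and 100% = tracer peptide lacking Bcl-B.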 The note with it: GST-Bcl-B / FITC-TR3 peptide fluorescence polarization; stronger effect = higher value; compound at 3.75 mg/L. (In general: Fluorescence polarisation rises when a labelled molecule tumbles more slowly, as on binding a larger partner.)
Sequence of UniProt Q9HD36 (Q9HD36 whole entry, looked up): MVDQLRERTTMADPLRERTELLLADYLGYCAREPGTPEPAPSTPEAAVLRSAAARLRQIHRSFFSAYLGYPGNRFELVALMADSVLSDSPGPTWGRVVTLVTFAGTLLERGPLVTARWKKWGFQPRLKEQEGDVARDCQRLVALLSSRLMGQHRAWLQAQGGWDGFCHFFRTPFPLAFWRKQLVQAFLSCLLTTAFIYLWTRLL
As for `CN(C)c1ccc(/C=C2/C(=O)NC(=O)N(CCCO)C2=O)cc1`, the displacement was -5.2%. With `Cc1cc(I)ccc1S(=O)(=O)N1CCN(c2ccccc2)CC1` the figure was 14.5%. `CCCCCc1ccc(/C(C)=N/Nc2cc(-n3cc(C)cn3)ncn2)cc1`: the displacement is -15.5%.

For the compound `Cc1cnn(-c2cc(N/N=C/c3ccc(F)cc3)ncn2)c1`, the displacement is -7.7%.

Consider `Cc1sc(NC(=O)C2CC2c2ccccc2)nc1-c1ccccc1` (stereo not given), for which the displacement came to 5.2%. With `Cc1nnc(C)n1/N=C/c1ccccc1Br` the figure was 11.6%; with `CS(=O)(=O)Nc1nnc(SCC(=O)Nc2cccc([N+](=O)[O-])c2)s1`, 4.7%. Take `CC(C)N=CC1=C(O)CC(c2ccccc2)CC1=O` (stereo not given): the displacement is -4.5%. With `CC(C)(C)OC(=O)COc1cc2oc(=O)cc(-c3ccccc3)c2cc1Cl` the figure was 10.5%. Turning to `CCCN1C(=O)c2ccccc2NC1c1ccc(Br)cc1` (stereo not given), the displacement is 7.8%. For the compound `Cc1ccc(-c2ccc(C)cc2N)c(N)c1`, the displacement is -3.3%. In the case of `COc1ccccc1CC(=O)Nc1cccc(F)c1`, the displacement is 5.8%. Regarding `CN=C(Nc1ccc(F)cc1)SC1CC(=O)N(c2ccccc2F)C1=O` (stereo not given), the displacement was -0.6%.

For the compound `Cc1ccc2oc(-c3ccc(NC(=O)c4cc5ccccc5o4)cc3O)nc2c1`, the displacement was -9.6%. Turning to `NNC(=O)CN1C(c2cccc(Cl)c2)=Nc2ccc(Br)cc2C1c1ccccc1` (stereo not given), the displacement was 11.2%.

Turning to `COc1ccc(N2C(=O)NC(=O)/C(=C\c3ccc(OCc4ccc(C(=O)O)cc4)c(OC)c3)C2=O)cc1`, the displacement was -11.7%.

As for `O=C(Nc1cccc2nsnc12)c1ccc([N+](=O)[O-])cc1`, the displacement was found to be 17.9%. Turning to `CCN(CC)CCNC(=O)c1ccc(Cl)c(Cl)c1`, the displacement was -5.2%. With `Cc1cc(OCC(=O)N(C)Cc2ccccc2)ccc1Cl` the figure was -1.7%; with `COc1ccc(-c2nc3cc(NC(=O)c4cc5ccccc5o4)ccc3o2)cc1Cl`, 7.5%. With `COc1ccc(-n2c(=S)[nH]c3sc4c(c3c2=O)CCC(C(C)(C)C)C4)cc1` (stereo not given) the figure was -8.9%. Take `O=C(Cc1ccccc1[N+](=O)[O-])N1CCN(c2cccc(Cl)c2)CC1`: the displacement worked out at 3.9%. Regarding `COc1cc(-c2ccc(NC(=O)c3ccc(C)cc3)c(OC)c2)ccc1NC(=O)c1ccc(C)cc1`, the displacement came to 8.9%. Turning to `COC(=O)c1ccc2c(c1O)C(=O)c1ccccc1C2=O`, the displacement was found to be 39.8%. With `CCOC(=O)C(Cc1ccc(NC(=O)/C(=C/c2ccc(OC(C)=O)cc2)NC(C)=O)cc1)N1C(=O)c2ccccc2C1=O` (stereo not given) the figure was 2.5%; with `COc1cc2c(cc1NC(=O)c1cccc(I)c1)oc1ccccc12`, 8.3%. On to `CCC(=O)Nc1nc2ccccc2n1CCCN(C)C`, for which the displacement came to 2.4%. Take `Cc1cc(NCCCO)n2c(nc3ccccc32)c1C#N`: the displacement came to 160%. With `Clc1cccc(Nc2nc3c(s2)CCCC3)c1`, the displacement came out at 3.9%. For `CCOc1ccc(C(=O)COC(=O)c2ccccc2[N+](=O)[O-])cc1`, the displacement is -1.7%.

In the case of `O=C(Nc1ccc(Cl)cc1)c1cc(-c2cccs2)nc2ccccc12`, the displacement worked out at 15.7%.

Turning to `COc1ccc(CN2CCN(Cc3ccco3)CC2)c(OC)c1`, the displacement is -5.2%.

`O=C(NCCCNc1ccc([N+](=O)[O-])cc1)c1ccc(Cl)cc1Cl`: the displacement amounted to 16%. For the compound `Cc1ccc(O)c(N2C(=O)c3ccc(Oc4ccc([N+](=O)[O-])cc4)cc3C2=O)c1`, the displacement is -10.9%.

In the case of `CC1=C/C(=N/OS(=O)(=O)c2ccc(C)cc2)C=CC1=O`, the displacement stood at 21.6%. Consider `Cc1ccc(OCCn2ccnc2)cc1`, for which the displacement worked out at 7.5%. As to `CCCc1cc(=O)oc2cc(OCC(=O)N(C)C)ccc12`, the displacement turned out to be 10.9%.

Regarding `COC(=O)C(=O)/C=C(/O)c1ccc(Br)cc1`, the displacement turned out to be 0.3%. As to `O=C(O)C12CC3CC(C(=O)O)(C1)CC(C(=O)O)(C3)C2`, the displacement was -4.5%.

For `COC(=O)C1=C(C)NC2=C(C(=O)CC(c3cccs3)C2)C1c1ccc(C)s1` (stereo not given), the displacement was determined as 5.3%. For `CCC(C)NC(=O)CN(c1ccc(Br)cc1)S(C)(=O)=O` (stereo not given), the displacement was 12.4%. For the compound `CCc1ccc(N2C(=O)NC(=O)/C(=C\c3ccc(N4CCOCC4)o3)C2=O)cc1`, the displacement was 15.7%. Turning to `CCN(CC)S(=O)(=O)c1ccc(Cl)c(C(=O)Nc2ccccn2)c1`, the displacement was -6%. Turning to `O=C(O)Cc1ccc(C(F)(F)F)cc1[N+](=O)[O-]`, the displacement turned out to be 8.7%.

As for `COc1cc(NC(=O)COc2ccc(C)cc2)cc(OC)c1`, the displacement amounted to 3.9%.

As to `S=C(NCC1OCCc2ccccc21)Nc1ccccc1` (stereo not given), the displacement was -12.7%. For `COC(=O)C1=C(C)NC2=C(C(=O)CC(c3cccs3)C2)C1c1ccc2c(c1)OCO2` (stereo not given), the displacement was 1.8%. As to `CCCC(=O)C1=C(O)C(C(=O)OC)C(C)(C)CC1=Nc1ccccc1OC` (stereo not given), the displacement was -2%.

Turning to `COc1ccc(-c2cc(C(F)(F)F)n3nc(C(=O)N4CCCc5ccccc54)cc3n2)cc1`, the displacement was -3.3%.

Take `CCOc1ccc(-c2csc(/C(C#N)=C\Nc3ccc(F)cc3)n2)cc1`: the displacement was -6%. In the case of `CCOc1ccc(/C=C(/NC(=O)c2cccc(Br)c2)C(=O)N2CCCC2)cc1`, the displacement is -11.7%. Take `COC(=O)c1cccc(NC(=O)c2ccccc2OC)c1`: the displacement was -9.7%.

For the compound `O=C(Nc1ccc2c(c1)Cc1ccccc1-2)c1cc(Br)ccc1Cl`, the displacement is 11.9%.

Turning to `COc1cccc(CN2CCN(Cc3ccccc3[N+](=O)[O-])CC2)c1`, the displacement was -16.6%. With `COc1ccc(C(=O)Nc2ccc(Br)cc2)cc1OC` the figure was 14.5%; with `O=C(/C=C/c1cn(Cc2ccccc2)c2ccccc12)c1ccc(Cl)cc1`, 11.4%; with `CC1(CC(=O)N/N=C/c2ccc(-c3ccc(Cl)cc3)o2)OCCO1`, 2.5%. As to `CC(C)(C)C1CCc2c(sc(NC(=O)C3CCCO3)c2C#N)C1` (stereo not given), the displacement was -2.1%. With `O=[N+]([O-])c1ccc(/C=C(Cl)/C=N\n2cnnc2)cc1` the figure was 10.5%. With `O=C(NC1(Cc2ccc(O)cc2)CCCCC1)c1ccccc1` the figure was -2.6%; with `Cc1cccc(OCC(=O)Nc2ccc(Cl)c(Cl)c2)c1C`, 3.3%; with `CCc1ccc(-c2nnc(-c3ccc(-c4ccc(OC)cc4)cc3)o2)cc1`, -0.6%. For `CCOC(=O)c1ccc(NC(=S)NC(NC(=O)c2ccccc2)C(Cl)(Cl)Cl)cc1` (stereo not given), the displacement is -10.6%.

For the compound `CN1C(=O)c2ccc(N(C)C)cc2C1=O`, the displacement is 20.2%. Take `COc1ccc(Br)cc1CN1CCN(C2CCCCC2)CC1`: the displacement was 6.2%. Consider `O=[N+]([O-])c1cccc(S(=O)(=O)NCC2CCCO2)c1` (stereo not given), for which the displacement came out at 14.5%. With `O=C(/C=C/c1ccccc1)NC(=S)Nc1ccc(Br)cn1` the figure was 13.6%; with `O=C(NCCCNc1ccc(Cl)cc1[N+](=O)[O-])c1ccccc1F`, 8.2%; with `O=C(/C=C/c1ccc2c(c1)OCO2)NC(c1ccccc1)c1ccccc1`, 6.1%.

With `Cc1cc(Br)ccc1NC(=O)c1ccc(Cl)c([N+](=O)[O-])c1`, the displacement was found to be 10.5%. `CCCC(=O)NS(=O)(=O)c1ccc(NC(=O)c2ccccc2)cc1`: the displacement was 6.1%.

For the compound `CCC(C)c1ccc(NC(=O)/C=C/c2cccc([N+](=O)[O-])c2)cc1` (stereo not given), the displacement was determined as 10.1%. Consider `O=C(NCCOc1cccc2ccccc12)Nc1cc(F)c(F)cc1Cl`, for which the displacement is -7.6%. With `O=C(CN1CCN(c2ccc([N+](=O)[O-])cc2)CC1)Nc1nccs1` the figure was 0.2%. With `Cc1ccc(C(=O)N/N=C\c2ccc(I)o2)o1` the figure was 8.4%; with `O=C1N=c2ccccc2=C1c1sc(=S)n(-c2cccc(C(F)(F)F)c2)c1O`, -0.5%. For the compound `CCOc1ccccc1NC(=O)Cc1ccc(OC)cc1`, the displacement is -36.2%. Turning to `O=C1CCCC2=C1C(c1ccc(O)cc1)Nc1ccccc1N2` (stereo not given), the displacement was -2.7%. With `O=C(Oc1cccc2ccccc12)c1ccco1` the figure was 9.4%. As for `O=C(NCCN1CCN(S(=O)(=O)c2ccc([N+](=O)[O-])cc2)CC1)C(=O)Nc1ccccc1`, the displacement amounted to 11.9%. For `COC(=O)c1ccc(NC(=O)c2ccccc2C(F)(F)F)cc1`, the displacement is -8.3%. In the case of `CN=C(Nc1ccc(Cl)cc1)SC1CC(=O)N(c2ccccc2F)C1=O` (stereo not given), the displacement is 10.9%. With `Cc1cc(C)cc(OCCCCCCn2ccnc2)c1` the figure was 8.9%; with `CN(C)c1ccc(NC(=O)COc2ccc(Cl)cc2Cl)cc1`, 15%; with `CCNC(=O)N1c2ccc(OCC)cc2C(C)=CC1(C)C`, -0.4%. `COc1ccc(N2C(=O)C=C(Nc3ccccc3)C2=O)cc1`: the displacement came to 5.4%. With `Cc1cccc(OCC(=O)N/N=C/c2cccc(OC(=O)c3cccc(F)c3)c2)c1` the figure was 18.5%; with `Cc1ccc(-c2nc3cc(Cl)cc(Cl)c3o2)cc1NC(=O)c1ccc2c(c1)OCCO2`, 6.6%. As to `O=C(NCCC12CC3CC(CC(C3)C1)C2)Nc1ccccc1`, the displacement worked out at 14.6%. For the compound `COc1cc(CN=Cc2c(O)n(-c3ccc(F)cc3)c(=O)[nH]c2=O)cc(OC)c1`, the displacement amounted to 84.7%. `O=C(COc1ccc(Cl)cc1Br)NNC(=O)c1ccncc1`: the displacement was -4.5%. Regarding `O=C(Nc1ccc(C(=O)c2ccccc2)cc1)c1ccc(Cl)cc1`, the displacement was -5.1%. Regarding `CCOC(=O)c1ccccc1NC(=O)CN(c1cccc(OC)c1)S(=O)(=O)c1ccccc1`, the displacement was -5.1%. `O=C(Nc1ccc2nn(-c3cccc4ccccc34)nc2c1)c1ccc([N+](=O)[O-])o1`: the displacement amounted to 15.7%. For `Oc1cccc(/C=N/Nc2ccccn2)c1`, the displacement was -2.7%. For `O=C(CN1C(=O)/C(=C/c2ccccc2Cl)SC1=S)Nc1cccc(C(=O)O)c1`, the displacement was found to be 21%. For the compound `COc1ccc(/C=C2\SC(=O)N(CC(=O)Nc3nccs3)C2=O)cc1OC`, the displacement was -10.4%. As to `CC(C)(C)c1ccc(OCC(=O)Nc2cccc(OC(F)(F)F)c2)cc1`, the displacement came to 1.1%. `O=C(N/N=C/c1ccc(-c2cccc(Cl)c2)o1)c1cccnc1`: the displacement is 7.7%.

As for `C=CCN1C(=O)NC(=O)/C(=C/c2ccc(OCc3ccccc3[N+](=O)[O-])c(OC)c2)C1=O`, the displacement was found to be 4.9%.

Regarding `CCn1c(C)c(C(=O)OC)c(/C=C2\C(=O)C=Cc3ccccc32)c1O`, the displacement is -11.8%. As for `O=C1c2cccc3cccc(c23)C(=O)N1/N=C/c1ccc(Br)cc1`, the displacement amounted to 8.4%.

For the compound `Oc1ccccc1C(=S)N1CCOCC1`, the displacement is 10.3%.

Consider `CCOC(=O)c1c(NC(=O)c2cccc(Cl)c2)sc(C(=O)Nc2ccccc2C(F)(F)F)c1C`, for which the displacement was 34.5%. As for `COc1cc(C(=O)NC(C)C2CC3CCC2C3)cc(OC)c1OC` (stereo not given), the displacement is 4.2%. With `Cc1ccc(OCC(=O)Nc2ccc(F)c([N+](=O)[O-])c2)cc1` the figure was 13.4%; with `COc1cc(C=C2C(=O)c3ccccc3C2=O)cc(I)c1OCc1ccc(Cl)cc1`, -0.5%. On to `CCCNC(=O)c1cc(OC)c(OC)cc1[N+](=O)[O-]`, for which the displacement was 18.2%. For `O=C(Nc1ccc2ccccc2c1)c1cc(Cl)ccc1Cl`, the displacement is 5.2%.

`CCCc1ccc(-c2nc(-c3ccccn3)no2)cc1`: the displacement is -10.9%.

(Values after PubChem BioAssay AID1240 (Sanford-Burnham Center for Chemical Genomics, 2008).)
